{"source": "PubChem BioAssay (Tox21)", "key": {"[1]": {"assay": "A CellTox Green Cytotoxicity Assay to monitor cytotoxicity in HEK293 cells - 40 hour (AID 1224871); also: nearly all actives have a fitted effect of over 45% in size; also: potency is read from the fitted curve at half-maximal effect; tags tell the direction and shape of the fitted curve", "summary_of_the_method": "(§1)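 Seeding of HEK293 cells together with cytotoxicity dye preceded a 5 h incubation at 37 C/5% CO2. Test compounds in DMSO were then added and fluorescence monitored across 40 h.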"}, "[2]": {"assay": "qHTS RealTime-Glo MT Cell Viability Assay in HepG2 cells - 8 hour (AID 1224873)", "summary_of_the_method": "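Real-time viability: cells seeded at 600 per well together with NanoLuc and cell-permeant prosubstrate, compounds added after 5 h incubation. Luminescence tracked at 0, 8, 16, 24, 32 and 40 h of exposure.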"}, "[3]": {"assay": "A CellTox Green Cytotoxicity Assay to monitor cytotoxicity in HepG2 cells - 40 hour (AID 1224879)", "summary_of_the_method": "(§2)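 Nonlytic assay: viable cells exclude the dye, so fluorescence scales with cell death. HepG2 at 600 cells/well, compounds added after 5 h, signal read across 40 h.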"}, "[4]": {"assay": "A CellTox Green Cytotoxicity Assay to monitor cytotoxicity in HEK293 cells - 24 hour (AID 1224875)", "summary_of_the_method": "as §1"}, "[5]": {"assay": "qHTS RealTime-Glo MT Cell Viability Assay in HEK293 cells - 16 hour (AID 1224872)", "summary_of_the_method": "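Quantitative high-throughput screen of the Tox21 10K library in HEK293: cells and RealTime-Glo reagents plated together, compound added at 5 h, luminescence monitored through 40 h at 37 C.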"}, "[6]": {"assay": "qHTS RealTime-Glo MT Cell Viability Assay in HEK293 cells - 40 hour (AID 1224874)", "details": "RealTime-Glo luminescence; max response: stronger effect = lower value", "summary_of_the_method": "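Tox21 screen in HEK293 using RealTime-Glo MT chemistry, with cells and reagent co-dispensed. Luminescence proportional to viable cell number was captured at intervals during 40 h compound exposure at 37 C.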"}, "[7]": {"assay": "A CellTox Green Cytotoxicity Assay to monitor cytotoxicity in HepG2 cells - 16 hour (AID 1224876)", "summary_of_the_method": "as §2"}, "[8]": {"assay": "A CellTox Green Cytotoxicity Assay to monitor cytotoxicity in HepG2 cells - 24 hour (AID 1224878)", "summary_of_the_method": "as §2"}, "[9]": {"assay": "qHTS RealTime-Glo MT Cell Viability Assay in HepG2 cells - 32 hour (AID 1224877)", "summary_of_the_method": "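Compound treatment began 5 h after plating HepG2 cells (600/well) with NanoLuc luciferase and prosubstrate. Plates stayed at 37 C for 40 h; luminescence was captured at six time points, 0 h through 40 h.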"}}, "note": "Several values for one entry are separate records, joined by “and”; a condition that tells them apart may be missing. Equal entries are not always repeated. Inconclusive means that the source gave no clear call. Such entries were picked first, then a sample of the others. For some assays here: Potencies beside an inconclusive call are fits to weak or partial responses and may not hold up. Activity calls are given as the source filed them. Calls follow the shape of the dose curve; as a rule, active = well fitted curve in the direction sought with a large enough effect in the repeat runs; inconclusive = weak or mixed curves; inactive = no such curve, though single readings can be large; an effect the other way counts as inactive or inconclusive."}
{"compound": "CC1=C(O)C(=O)C(C)O1", "note": "(stereo not drawn); as to max response: % is scaled to controls: 0 for no effect and ±100 for the full control effect; as to max response: nearly all actives have a fitted effect of over 50% in size", "values": [{"measurement": "Potency", "setting": "[1]", "value": "inactive"}, {"measurement": "Potency", "setting": "[2]", "value": "inactive"}, {"measurement": "Potency", "setting": "[3]", "value": "inactive"}]}
{"compound": "C/C=C/c1ccc(OC)cc1", "values": [{"measurement": "Potency", "setting": "[1]", "value": "inconclusive: 50.6 µM [activator, single point]"}, {"measurement": "Potency", "setting": "[4]", "value": "inconclusive: 45.1 µM [activator, single point]"}]}
{"compound": "O=C(O)[C@H](O)[C@@H](O)[C@H](O)[C@H](O)CO", "values": [{"measurement": "Potency", "setting": "[1]", "value": "inconclusive: 24.5 µM [activator, single point] and inconclusive: 2.96 µM [activator, single point]"}, {"measurement": "Potency", "setting": "[5]", "value": "inactive"}, {"measurement": "Potency", "setting": "[4]", "value": "inconclusive: 24.5 µM [activator, single point] and inconclusive: 2.96 µM [activator, single point]"}]}
{"compound": "O=C1NCCN1", "values": [{"measurement": "Potency", "setting": "[1]", "value": "inconclusive: 3.32 µM [activator, partial curve, poor fit]"}, {"measurement": "Potency", "setting": "[4]", "value": "inconclusive: 4.18 µM [activator, partial curve, poor fit]"}]}
{"compound": "CC(S)C(=O)NCC(=O)O", "note": "(stereo not drawn)", "values": [{"measurement": "Potency", "setting": "[1]", "value": "inconclusive: 23.9 µM [activator, single point]"}, {"measurement": "Potency", "setting": "[4]", "value": "inconclusive: 23.9 µM [activator, single point]"}]}
{"compound": "CCC(=O)O[C@]1(C(=O)CCl)[C@@H](C)C[C@H]2[C@@H]3CCC4=CC(=O)C=C[C@]4(C)[C@@]3(F)[C@@H](O)C[C@@]21C", "values": [{"measurement": "Potency", "setting": "[1]", "value": "inactive"}, {"measurement": "Potency", "setting": "[5]", "value": "inconclusive: 16.9 µM [cytotoxic, partial curve, poor fit]"}, {"measurement": "Potency", "setting": "[6]", "value": "inconclusive: 16.9 µM [cytotoxic, partial curve]"}, {"measurement": "Potency", "setting": "[3]", "value": "inactive"}]}
{"compound": "C=CC(C)(O)CC/C=C(\\C)CCC=C(C)C", "note": "(stereo not drawn)", "values": [{"measurement": "Potency", "setting": "[1]", "value": "active: 49 µM"}, {"measurement": "Potency", "setting": "[5]", "value": "inactive"}, {"measurement": "Potency", "setting": "[4]", "value": "active: 54.9 µM"}]}
{"compound": "c1ccc(OCc2ccc(CCCN3CCOCC3)cc2)cc1", "values": [{"measurement": "Potency", "setting": "[1]", "value": "inactive"}, {"measurement": "Potency", "setting": "[5]", "value": "inconclusive: 21.3 µM [cytotoxic, partial curve]"}, {"measurement": "Potency", "setting": "[4]", "value": "inactive"}, {"measurement": "Potency", "setting": "[7]", "value": "inconclusive: 16.9 µM [activator, partial curve, poor fit]"}, {"measurement": "Potency", "setting": "[8]", "value": "inconclusive: 16.9 µM [activator, partial curve, poor fit]"}]}
{"compound": "CCCCOc1cc(C(=O)NCCN(CC)CC)c2ccccc2n1", "values": [{"measurement": "Potency", "setting": "[1]", "value": "inconclusive: 15.1 µM [activator, partial curve, poor fit]"}, {"measurement": "Potency", "setting": "[5]", "value": "inconclusive: 19 µM [cytotoxic, partial curve]"}, {"measurement": "Potency", "setting": "[6]", "value": "inconclusive: 23.9 µM [cytotoxic, partial curve]"}, {"measurement": "Potency", "setting": "[7]", "value": "inconclusive: 23.9 µM [activator, single point]"}, {"measurement": "Potency", "setting": "[3]", "value": "active: 23.9 µM"}]}
{"compound": "c1ccc2c(c1)-c1ccc3ccc4cccc5cc-2c1c3c45", "values": [{"measurement": "Potency", "setting": "[1]", "value": "inconclusive: 26.8 µM [activator, single point]"}, {"measurement": "max response", "setting": "[6]", "value": "inactive: 8.42%"}, {"measurement": "Potency", "setting": "[8]", "value": "inconclusive: 19 µM [activator, partial curve, poor fit]"}, {"measurement": "Potency", "setting": "[3]", "value": "active: 9.52 µM"}]}
{"compound": "C/C=C/c1ccc(OCC)c(O)c1", "values": [{"measurement": "Potency", "setting": "[1]", "value": "inconclusive: 21.9 µM [activator, single point]"}, {"measurement": "max response", "setting": "[6]", "value": "inactive: -14.3% and inactive: 2.47%"}, {"measurement": "Potency", "setting": "[4]", "value": "inconclusive: 21.9 µM [activator, single point]"}]}
{"compound": "Oc1ccc(Nc2ccccc2)cc1", "values": [{"measurement": "Potency", "setting": "[1]", "value": "inconclusive: 54.9 µM [activator, single point]"}, {"measurement": "Potency", "setting": "[2]", "value": "inconclusive: 27.5 µM [falling, partial curve]"}, {"measurement": "Potency", "setting": "[4]", "value": "inconclusive: 54.9 µM [activator, single point]"}]}
{"compound": "[O-][N+](=Nc1ccccc1)c1ccccc1", "values": [{"measurement": "Potency", "setting": "[1]", "value": "inconclusive: 55 µM [activator, single point]"}, {"measurement": "max response", "setting": "[6]", "value": "inactive: -1.34%"}, {"measurement": "Potency", "setting": "[4]", "value": "inconclusive: 9.77 µM [activator, full curve, poor fit]"}]}
{"compound": "CCOc1ccccc1N", "values": [{"measurement": "Potency", "setting": "[1]", "value": "inconclusive: 21.7 µM [activator, single point]"}, {"measurement": "Potency", "setting": "[6]", "value": "inconclusive: 13.7 µM [cytotoxic, full curve]"}, {"measurement": "Potency", "setting": "[3]", "value": "inactive"}]}
{"compound": "CC(Cl)C(Cl)Cl", "note": "(stereo not drawn)", "values": [{"measurement": "Potency", "setting": "[1]", "value": "inconclusive: 54.1 µM [activator, single point]"}, {"measurement": "Potency", "setting": "[4]", "value": "active: 42.9 µM"}]}
{"compound": "CN1CCC(=C2c3ccccc3Sc3ccccc32)CC1", "values": [{"measurement": "Potency", "setting": "[1]", "value": "inconclusive: 26.8 µM [activator, single point]"}, {"measurement": "Potency", "setting": "[6]", "value": "inconclusive: 23.9 µM [cytotoxic, single point]"}, {"measurement": "Potency", "setting": "[7]", "value": "inconclusive: 26.8 µM [activator, single point]"}, {"measurement": "Potency", "setting": "[9]", "value": "inconclusive: 23.9 µM [cytotoxic, partial curve, poor fit]"}]}
{"compound": "OC[C@H]1O[C@@](CO)(O[C@H]2O[C@H](CO)[C@@H](O)[C@H](O)[C@H]2O)[C@@H](O)[C@@H]1O", "values": [{"measurement": "Potency", "setting": "[1]", "value": "inconclusive: 21.9 µM [activator, single point]"}, {"measurement": "Potency", "setting": "[4]", "value": "inconclusive: 21.9 µM [activator, single point]"}]}
